Test results published in EP0454367B1, “Growth hormone releasing factor analogs” (ELI LILLY AND COMPANY, priority 1990, dated 1991).
At least one peptide structure holds a part that was inferred or is arguable (an end, a ring closure or a residue). Residues, ends and D or L forms follow the SMILES beside them.

Biological target: T1, Rat Pituitary Cells (Rattus norvegicus, UniProt Q02644)
T1 sequence (Q02644 23-464): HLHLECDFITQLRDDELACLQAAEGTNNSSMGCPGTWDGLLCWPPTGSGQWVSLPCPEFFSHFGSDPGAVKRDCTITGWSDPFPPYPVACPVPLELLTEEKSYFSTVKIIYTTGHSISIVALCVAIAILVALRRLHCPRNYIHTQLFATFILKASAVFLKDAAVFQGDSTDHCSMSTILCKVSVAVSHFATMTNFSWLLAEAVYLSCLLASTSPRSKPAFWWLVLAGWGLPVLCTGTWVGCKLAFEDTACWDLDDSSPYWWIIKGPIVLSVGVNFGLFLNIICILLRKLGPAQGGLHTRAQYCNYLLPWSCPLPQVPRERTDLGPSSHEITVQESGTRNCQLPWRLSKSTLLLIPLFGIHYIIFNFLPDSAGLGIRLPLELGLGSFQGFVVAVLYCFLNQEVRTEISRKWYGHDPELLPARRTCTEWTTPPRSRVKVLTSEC
Experiment: GRF-analog mediated GH secretion from rat pituitary cells (method of Heiman et al.)
Assay type: cell-based
Conditions: EC50 [R^12,T^15,R^21,L^27]hGRF(1-29)NH2 / EC50 analog
Description: The polypeptide compounds of the invention may be assayed in numerous systems. One in vivo assay is carried out in sodium pentobarbital-anesthetized rats. Wehrenberg et al., Biochem. Biophys. Res. Commun. 109:382 (1982). Growth hormone release is measured in vitro with rat anterior pituitary cells. Heiman et al., Endocrinol. 116:410 (1985). Assays are also performed in wether lambs as described in the Examples provided hereinafter.
Various bGRF peptide analogs were synthesized by the solid phase synthesis method as described in U.S. Patent 4,617,149. The compounds were assayed in rat pituitary cells by the method of Heiman et al., Endocrinol. 116:410 (1985). The analogs are based on the sequence of the first 29 amino acids of human growth hormone releasing factor with the substitutions listed.

Row | SMILES | Relative Potency (% of std)
1 | CC[C@H](C)[C@H](NC(=O)[C@H](C)NC(=O)[C@H](CC(=O)O)NC(=O)[C@H](C)NC(=O)[C@@H](N)Cc1ccc(O)cc1)C(=O)N[C@@H](Cc1ccccc1)C(=O)N[C@H](C(=O)N[C@@H](CC(N)=O)C(=O)N[C@@H](CO)C(=O)N[C@@H](Cc1ccc(O)cc1)C(=O)N[C@@H](CCCNC(=N)N)C(=O)N[C@@H](CCCNC(=N)N)C(=O)N[C@H](C(=O)N[C@@H](CC(C)C)C(=O)N[C@H](C(=O)N[C@@H](CCC(N)=O)C(=O)N[C@@H](CC(C)C)C(=O)N[C@@H](CO)C(=O)N[C@@H](C)C(=O)N[C@@H](CCCNC(=N)N)C(=O)N[C@@H](CCCNC(=N)N)C(=O)N[C@@H](CC(C)C)C(=O)N[C@@H](CC(C)C)C(=O)N[C@@H](CCC(N)=O)C(=O)N[C@@H](CC(=O)O)C(=O)N[C@H](C(=O)N[C@@H](CC(C)C)C(=O)N[C@@H](CO)C(=O)N[C@@H](CCCNC(=N)N)C(N)=O)[C@@H](C)CC)[C@@H](C)O)C(C)C)[C@@H](C)O [[R^12,T^15,R^21,L^27]hGRF(1-29)NH2] (H-YADAIFTNSYRRVLTQLSARRLLQDILSR-NH2) | 1.0 % of std
2 | CC[C@H](C)[C@H](NC(=O)[C@H](C)NC(=O)[C@H](CC(=O)O)NC(=O)[C@H](C)NC(=O)[C@H](Cc1ccc(O)cc1)NC(=O)CN)C(=O)N[C@@H](Cc1ccccc1)C(=O)N[C@H](C(=O)N[C@@H](CC(N)=O)C(=O)N[C@@H](CO)C(=O)N[C@@H](Cc1ccc(O)cc1)C(=O)N[C@@H](CCCNC(=N)N)C(=O)N[C@@H](CCCNC(=N)N)C(=O)N[C@H](C(=O)N[C@@H](CC(C)C)C(=O)N[C@H](C(=O)N[C@@H](CCC(N)=O)C(=O)N[C@@H](CC(C)C)C(=O)N[C@@H](CO)C(=O)N[C@@H](C)C(=O)N[C@@H](CCCNC(=N)N)C(=O)N[C@@H](CCCNC(=N)N)C(=O)N[C@@H](CC(C)C)C(=O)N[C@@H](CC(C)C)C(=O)N[C@@H](CCC(N)=O)C(=O)N[C@@H](CC(=O)O)C(=O)N[C@H](C(=O)N[C@@H](CC(C)C)C(=O)N[C@@H](CO)C(=O)N[C@@H](CCCNC(=N)N)C(N)=O)[C@@H](C)CC)[C@@H](C)O)C(C)C)[C@@H](C)O [[G^0,R^12,T^15,R^21,L^27]hGRF(1-29)NH2] (H-GYADAIFTNSYRRVLTQLSARRLLQDILSR-NH2) | .36 % of std
3 | CC[C@H](C)[C@H](NC(=O)[C@H](C)NC(=O)[C@H](CC(=O)O)NC(=O)[C@H](C)NC(=O)[C@H](Cc1ccc(O)cc1)NC(=O)[C@H](C)N)C(=O)N[C@@H](Cc1ccccc1)C(=O)N[C@H](C(=O)N[C@@H](CC(N)=O)C(=O)N[C@@H](CO)C(=O)N[C@@H](Cc1ccc(O)cc1)C(=O)N[C@@H](CCCNC(=N)N)C(=O)N[C@@H](CCCNC(=N)N)C(=O)N[C@H](C(=O)N[C@@H](CC(C)C)C(=O)N[C@H](C(=O)N[C@@H](CCC(N)=O)C(=O)N[C@@H](CC(C)C)C(=O)N[C@@H](CO)C(=O)N[C@@H](C)C(=O)N[C@@H](CCCNC(=N)N)C(=O)N[C@@H](CCCNC(=N)N)C(=O)N[C@@H](CC(C)C)C(=O)N[C@@H](CC(C)C)C(=O)N[C@@H](CCC(N)=O)C(=O)N[C@@H](CC(=O)O)C(=O)N[C@H](C(=O)N[C@@H](CC(C)C)C(=O)N[C@@H](CO)C(=O)N[C@@H](CCCNC(=N)N)C(N)=O)[C@@H](C)CC)[C@@H](C)O)C(C)C)[C@@H](C)O [[A^0,R^12,T^15,R^21,L^27]hGRF(1-29)NH2] (H-AYADAIFTNSYRRVLTQLSARRLLQDILSR-NH2) | .255 % of std
4 | CC[C@H](C)[C@H](NC(=O)[C@H](C)NC(=O)[C@H](CC(=O)O)NC(=O)[C@H](C)NC(=O)[C@@H](N)Cc1ccc(O)cc1)C(=O)N[C@@H](Cc1ccccc1)C(=O)N[C@H](C(=O)N[C@@H](CC(N)=O)C(=O)N[C@@H](CO)C(=O)N[C@@H](Cc1ccc(O)cc1)C(=O)N[C@@H](CCCNC(=N)N)C(=O)N[C@@H](CCCCN)C(=O)N[C@H](C(=O)N[C@@H](CC(C)C)C(=O)NCC(=O)N[C@@H](CCC(N)=O)C(=O)N[C@@H](CC(C)C)C(=O)N[C@@H](CO)C(=O)N[C@@H](C)C(=O)N[C@@H](CCCNC(=N)N)C(=O)N[C@@H](CCCCN)C(=O)N[C@@H](CC(C)C)C(=O)N[C@@H](CC(C)C)C(=O)N[C@@H](CCC(N)=O)C(=O)N[C@@H](CC(=O)O)C(=O)N[C@H](C(=O)N[C@@H](CCSC)C(=O)N[C@@H](CO)C(=O)N[C@@H](CCCNC(=N)N)C(=O)N[C@@H](CCC(N)=O)C(=O)N[C@@H](CCC(N)=O)C(=O)NCC(=O)N[C@@H](CCC(=O)O)C(=O)N[C@@H](CO)C(=O)N[C@@H](CC(N)=O)C(=O)N[C@@H](CCC(N)=O)C(=O)N[C@@H](CCC(=O)O)C(=O)N[C@@H](CCCNC(=N)N)C(=O)NCC(=O)N[C@@H](C)C(=O)N[C@@H](CCCNC(=N)N)C(=O)N[C@@H](C)C(=O)N[C@@H](CCCNC(=N)N)C(=O)N[C@@H](CC(C)C)C(=O)O)[C@@H](C)CC)C(C)C)[C@@H](C)O [hGRF (1-44)0H, reference compound] | 1.0 % of std
5 | CC[C@H](C)[C@H](NC(=O)[C@H](C)NC(=O)[C@H](CC(=O)O)NC(=O)[C@H](C)NC(=O)[C@H](Cc1ccc(O)cc1)NC(=O)[C@@H](N)CC(=O)O)C(=O)N[C@@H](Cc1ccccc1)C(=O)N[C@H](C(=O)N[C@@H](CC(N)=O)C(=O)N[C@@H](CO)C(=O)N[C@@H](Cc1ccc(O)cc1)C(=O)N[C@@H](CCCNC(=N)N)C(=O)N[C@@H](CCCNC(=N)N)C(=O)N[C@H](C(=O)N[C@@H](CC(C)C)C(=O)N[C@H](C(=O)N[C@@H](CCC(N)=O)C(=O)N[C@@H](CC(C)C)C(=O)N[C@@H](CO)C(=O)N[C@@H](C)C(=O)N[C@@H](CCCNC(=N)N)C(=O)N[C@@H](CCCNC(=N)N)C(=O)N[C@@H](CC(C)C)C(=O)N[C@@H](CC(C)C)C(=O)N[C@@H](CCC(N)=O)C(=O)N[C@@H](CC(=O)O)C(=O)N[C@H](C(=O)N[C@@H](CC(C)C)C(=O)N[C@@H](CO)C(=O)N[C@@H](CCCNC(=N)N)C(N)=O)[C@@H](C)CC)[C@@H](C)O)C(C)C)[C@@H](C)O [[D^0,R^12,T^15,R^21,L^27]hGRF(1-29)NH2] (H-DYADAIFTNSYRRVLTQLSARRLLQDILSR-NH2) | .24 % of std
6 | CC[C@H](C)[C@H](NC(=O)[C@H](C)NC(=O)[C@H](CC(=O)O)NC(=O)[C@H](C)NC(=O)[C@H](Cc1ccc(O)cc1)NC(=O)[C@H](C)NC(=O)[C@@H]1CCCN1)C(=O)N[C@@H](Cc1ccccc1)C(=O)N[C@H](C(=O)N[C@@H](CC(N)=O)C(=O)N[C@@H](CO)C(=O)N[C@@H](Cc1ccc(O)cc1)C(=O)N[C@@H](CCCNC(=N)N)C(=O)N[C@@H](CCCNC(=N)N)C(=O)N[C@H](C(=O)N[C@@H](CC(C)C)C(=O)N[C@H](C(=O)N[C@@H](CCC(N)=O)C(=O)N[C@@H](CC(C)C)C(=O)N[C@@H](CO)C(=O)N[C@@H](C)C(=O)N[C@@H](CCCNC(=N)N)C(=O)N[C@@H](CCCNC(=N)N)C(=O)N[C@@H](CC(C)C)C(=O)N[C@@H](CC(C)C)C(=O)N[C@@H](CCC(N)=O)C(=O)N[C@@H](CC(=O)O)C(=O)N[C@H](C(=O)N[C@@H](CC(C)C)C(=O)N[C@@H](CO)C(=O)N[C@@H](CCCNC(=N)N)C(N)=O)[C@@H](C)CC)[C@@H](C)O)C(C)C)[C@@H](C)O [[P^-1,A^0,R^12,T^15,R^21,L^27]hGRF(1-29)NH2] (H-PAYADAIFTNSYRRVLTQLSARRLLQDILSR-NH2) | .13 % of std
